# Test results from the antibiotic and cytotoxicity screens of Wong et al. (2023).
# This is one part of the list.
# System: HepG2
# Test: cytotoxicity call (relative viability < 0.9)
# Settings: 10 µM
row,Structure (SMILES),cytotoxicity call
1,C[C@H](CO)N1C[C@H](C)[C@@H](CN(C)C(=O)Nc2ccc(C(F)(F)F)cc2)OCc2cnnn2CCCC1=O,inactive
2,O=C(C[C@@H]1C[C@@H]2c3cc(NC(=O)NC4CCCC4)ccc3O[C@@H]2[C@@H](CO)O1)NCc1ccc(Oc2ccccc2)cc1,inactive
3,C[C@@H]1CN([C@H](C)CO)C(=O)Cc2cc(NC(=O)C3CC3)ccc2O[C@@H]1CN(C)C(=O)NC1CCCCC1,inactive
4,C[C@H]1CN([C@@H](C)CO)C(=O)CCCn2nncc2CO[C@@H]1CN(C)S(=O)(=O)c1ccc2c(c1)OCCCO2,inactive
5,CC#CCO[Si](C#CCCCCCC)(C(C)C)C(C)C,inactive
6,Cc1noc(C)c1NC(=O)Nc1ccc2c(c1)C(=O)N([C@H](C)CO)C[C@@H](C)[C@H](CN(C)S(=O)(=O)c1ccccc1)O2,inactive
7,Cc1o[nH]c(=O)c1CC[C@@H](N)C(=O)O,inactive
8,Cc1noc(C)c1NC(=O)Nc1ccc2c(c1)CC(=O)N([C@H](C)CO)C[C@@H](C)[C@@H](CN(C)S(=O)(=O)c1cccs1)O2,inactive
9,C[C@@H](CO)N1C(=O)[C@@H]2[C@H]3C(=O)OCCC=C[C@H]3O[C@]23C=CCN(CCN2CCOCC2)C(=O)[C@@H]13,inactive
10,CC(=O)N1C[C@@H](NC(=O)c2nccn2C)[C@@H]2OCCC[C@@H]21,inactive
11,COc1ccc(NC(=O)N(C)C[C@@H]2Oc3c(NS(=O)(=O)c4cn(C)cn4)cccc3C(=O)N([C@@H](C)CO)C[C@H]2C)cc1,inactive
12,O=C(C[C@@H]1C=C[C@@H](NS(=O)(=O)c2ccc(F)cc2)[C@@H](CO)O1)N1CCC(Cc2ccccc2)CC1,inactive
13,O=C(Nc1cccnc1)c1nc2ncccn2n1,inactive
14,C[C@H](CO)N1C[C@H](C)[C@H](CN(C)C(=O)Nc2ccc3c(c2)OCO3)Oc2c(NC(=O)c3cnccn3)cccc2C1=O,inactive
15,COc1ccc(NC(=O)Nc2ccc3c(c2)C(=O)N([C@H](C)CO)C[C@@H](C)[C@@H](CN(C)Cc2ccc4c(c2)OCO4)OCCCC[C@@H](C)O3)cc1,active
16,COc1ccc(S(=O)(=O)N(C)C[C@H]2OCCCC[C@H](C)Oc3ccc(NC(=O)Nc4c(C)noc4C)cc3C(=O)N([C@H](C)CO)C[C@H]2C)cc1,inactive

row,Structure (SMILES),cytotoxicity call
1,COCC(=O)N1CC[C@]2(CC1)CN([C@H](CO)c1c2c2ccc(cc2n1C)OC)C(=O)Cc1ccccc1,active
2,CC(C)NC(=O)[C@@H](C)n1ncn2cccc2c1=O,inactive
3,C[C@H]1CN([C@@H](C)CO)C(=O)c2cc(-c3ccncc3)cnc2O[C@@H]1CN(C)S(=O)(=O)c1ccccc1,inactive
4,C[C@H]1CN([C@@H](C)CO)C(=O)c2cc(NC(=O)CCCN(C)C)ccc2O[C@@H]1CN(C)C(=O)Nc1ccc(F)cc1,inactive
5,C[C@H]1CN([C@@H](C)CO)C(=O)Cc2cc(NC(=O)CCC(F)(F)F)ccc2O[C@H]1CN(C)S(=O)(=O)c1ccccc1,inactive
6,C[C@@H]1CN([C@H](C)CO)C(=O)c2cccc(NC(=O)Nc3ccc(F)cc3)c2O[C@@H]1CN(C)Cc1ccc(Oc2ccccc2)cc1,active
7,C=CC[C@@H](CC(=O)N(CCO)Cc1ccccc1)C(=O)N[C@H](COC(=O)[C@@H](CC=C)Cc1ccc(F)cc1)C(C)(C)C,inactive
8,COc1ccc(CN(C)C[C@@H]2OCCCC[C@H](C)Oc3ccc(NC(=O)NC4CCCCC4)cc3C(=O)N([C@@H](C)CO)C[C@H]2C)cc1,inactive
9,COCC(=O)N1C[C@@H](C)[C@@H](OC)CN(C)C(=O)c2cc(NC(=O)c3ccc(OC)cc3)ccc2OC[C@H]1C,inactive
10,NCC1CCSCC1,inactive
11,C[C@H]1CCCCO[C@@H](CN(C)Cc2ccc(C(=O)O)cc2)[C@@H](C)CN([C@@H](C)CO)C(=O)c2cc(NC(=O)Cc3ccccc3)ccc2O1,inactive
12,C[C@@H]1CCCCO[C@H](CN(C)S(=O)(=O)c2cccs2)[C@@H](C)CN([C@H](C)CO)C(=O)c2cc(NC(=O)Cc3ccccc3)ccc2O1,inactive
13,CC(=O)Oc1ccc2c(C)cc(=O)oc2c1,inactive
14,C[C@H](CO)N1C[C@H](C)[C@@H](CN(C)C(=O)NC2CCCCC2)Oc2c(NC(=O)C3CC3)cccc2C1=O,inactive
15,C[C@@H]1CN([C@H](C)CO)C(=O)c2cccc(NC(=O)Nc3ccccc3)c2O[C@@H]1CN(C)C(=O)Nc1ccc(C(F)(F)F)cc1,inactive
16,C[C@@H]1CCCCO[C@@H](CN(C)C(=O)CCCN(C)C)[C@H](C)CN([C@@H](C)CO)C(=O)c2cc(NC(=O)Nc3cccc4ccccc34)ccc2O1,inactive
